Measured values as given in the supplement of paper PMC10126150.
Values marked as one replicate rest on one cluster of the flow cell; about a third of the high ones do not repeat.

Tested on: ATP
Assay: switch fluorescence ratio, 500 uM ATP over buffer (Cy3 cluster intensity, sum of 5 cycles each) (fold (ratio)); higher = stronger signal-on switching upon ATP binding; sequences stand for … in TCGTCGGCAGCGTCAGATGTGTATAAGAGACAGTTTTTTTTTTTTTTTTTTTTTTTTT…TC
Conditions: aptamer strand: ATP DNA aptamer (quencher-CACCTGGGGGAGTATTGCGGAGGAAGG + anchor), 100 nM annealed; ATP concentration: 500 uM; one replicate
How it was run: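 For every switch-domain sequence, the fluorescence ratio is the mean of per-cluster values, each being summed target-cycle Cy3 intensity over summed buffer-cycle Cy3 intensity. Clusters outside 100-1000 RFU were excluded. On a modified Illumina MiSeq flow-cell, the Cy3-labelled switching-strand clusters were annealed to 100 nM quencher-labelled ATP aptamer, imaged in selection buffer and then after 15 min with 500 uM ATP at 22 °C. Five such cycles were run, with NaOH stripping and re-annealing between them.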
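Also: ATP exposure 15 min at 22 °C before imaging.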

| Sequence | switch fluorescence ratio |
| --- | --- |
| ACTGACCTTC | 1.77 |
| GGTCAACTCA | 0.956 |
| TCGTTCTGTG | 0.952 |
| TCGCACGGTT | 1.02 |
| GTCGAATAGC | 0.988 |
| AGCCGGACTA | 1.2 |
| GGGATGGCGG | 0.965 |
| TCGCTCGGCT | 0.922 |
| AATATATGAA | 1 |
| TTATCCGATT | 0.999 |
| GCTCTTCAGG | 1.04 |
| CCTCTGAGGA | 1.08 |
| CCGTGACGTC | 0.987 |
| CTCTGTGGAG | 0.979 |
| TGCGATGCTG | 1.04 |
| CCCAGGGCCT | 1.25 |
| CAGGTGTTAA | 1.1 |
| TCTACGAGAA | 1.07 |
| AGATTACGAT | 1.01 |
| ACATTTAGGA | 1.01 |
| ACAACAAAAG | 1.03 |
| ACACTAGGGT | 1.01 |
| CGCTATCAGG | 1.08 |
| GCGATTATGT | 0.984 |
| GATGTCAAGC | 1.03 |
| ACCCTTTCCC | 1.12 |

| Sequence | switch fluorescence ratio |
| --- | --- |
| CATCTGACAC | 1.24 |
| GGTTGTCCTT | 0.986 |
| CGGATTCTCT | 0.941 |
| GGGGTCACGA | 0.996 |
| GCTACTCGT | 1.05 |
| CGGCGCATCT | 1.28 |
| ATGCATGCGA | 0.98 |
| GCTTGCCGCT | 0.988 |
| GAGGTTCGAG | 0.982 |
| TTATGCGCTA | 1.1 |
| TAGCGCCAGC | 0.991 |
| GCCCGGGGCG | 0.949 |
| TACGGCCGGT | 1.02 |
| TGATGGAATT | 1 |
| CTCCGGCTTT | 1.54 |
| ACACCCATGG | 1.21 |
| GTAATTCGGT | 1.03 |
| GGTCCAGCGT | 1.02 |
| ACCGCGACCC | 1.55 |
| TTGGTTATTA | 0.997 |
| ACCTCTTCTT | 1.01 |
| GTAAGAGTAG | 1 |
| TGTTACGATC | 1.02 |
| GGTAAAGTTT | 1.01 |
| TTTTGGACAA | 1 |
| GTTTAACGAG | 0.951 |

| Sequence | switch fluorescence ratio |
| --- | --- |
| CGCAAAGGCC | 1.69 |
| AAGATGGGAA | 1.04 |
| ACCTTATTTT | 1.02 |
| TCATGCCCCG | 1.02 |
| TCCCGTATCG | 0.987 |
| GGATTGCCCG | 1.01 |
| CCAGATACGT | 1.09 |
| TAATCATTAA | 0.955 |
| CTTAAGGCCC | 1 |
| AGTTGTGTCA | 0.946 |
| TACATATAGC | 1.07 |
| GGATTGCGCC | 1.03 |
| GGGGCCAGGA | 1.06 |
| TAGAGCGTAG | 1 |
| ATAAAATCTG | 0.954 |
| AATCAACGAC | 1.12 |
| AGTAATCGTT | 1.04 |
| CAATAAGAAG | 0.947 |
| CATGAAATGT | 1.06 |
| CGCACATGTC | 1.76 |
| TACACGTACT | 1.68 |
| TAATGCGGTA | 1.02 |
| GCCTAAGTGG | 0.979 |
| GCTCGGGTGC | 1.27 |
| ATAGGATTTC | 0.982 |
| GATCTTCAGG | 1.02 |

| Sequence | switch fluorescence ratio |
| --- | --- |
| AGAAACGCAC | 1.73 |
| CAGTTGGAGA | 0.991 |
| GCGTCTATGG | 1.01 |
| ATGTCTCCCT | 1.02 |
| GTGTTCAAAC | 1.03 |
| CCGAGTAGTG | 1.2 |
| TATACTCTGG | 1.01 |
| GCCCAAAGGG | 0.998 |
| GAAGTCCCGG | 1.03 |
| CTTGAGGGTT | 1.42 |
| AGTCCGAGTC | 1.04 |
| GACAGAACTA | 1.1 |
| TGGTAGAAGC | 1.01 |
| GACAATGATC | 1.09 |
| TATTTAGTG | 0.982 |
| AGTCATCCGA | 0.995 |
| GACGCTCCGA | 1.11 |
| ATTTGTGGGT | 0.972 |
| ACTATGCAG | 1.05 |
| GCTCAGCCTA | 1.07 |
| ACCGTAGGCT | 1 |
| CTCTGGACTT | 0.998 |
| ATGCGTATAC | 2.46 |
| CGTGAAAACA | 1.13 |
| GGTGCGTTTG | 0.954 |
| CGCGGGAGAT | 1.03 |

| Sequence | switch fluorescence ratio |
| --- | --- |
| GTCTGAGAGC | 1.07 |
| GCCTTGGTG | 1.33 |
| ATTCGTTATA | 0.975 |
| GAATTCATGC | 1.02 |
| AGCCCTGCAC | 1.03 |
| GCTTTGAAGG | 0.951 |
| TCTCTAGGGC | 1.08 |
| TTGGCCTCCT | 1.01 |
| GGCTCCACAG | 1.23 |
| CGGTAGGCCT | 1.01 |
| GCCTGAAGTT | 1.01 |
| TCCTTCTCCT | 1.19 |
| ACTTGAACTA | 1.14 |
| TCAAGGTTCC | 1.06 |
| TTAGTTGT | 0.958 |
| GTGACCCGAG | 0.994 |
| GGAAATCGTA | 0.991 |
| GCGTTACCTG | 1.01 |
| AGAATTCCAT | 0.933 |
| AAGTCTGTCA | 0.99 |
| CGATCCCAGT | 1.48 |
| CACATAAGAC | 1.09 |
| TTTCGCACGA | 2.81 |
| AGCCAGCCTC | 1.2 |
| TTATATTTA | 1.01 |
| ACTCTGACGG | 1.11 |

| Sequence | switch fluorescence ratio |
| --- | --- |
| TAAGTCGGGC | 0.977 |
| ATCCGAGGCC | 1.06 |
| AAACAAACGG | 1.1 |
| ACTGGCCCTT | 0.993 |
| TTGAACCAA | 1.03 |
| GCAATGCTTC | 5.01 |
| TCAAACCGGG | 1 |
| ATTAGAGGAA | 0.985 |
| CCAGATGCAG | 1.03 |
| TGTTACCCGG | 1.01 |
| AATGGAACGC | 0.987 |
| CCGGGGGTGG | 1.04 |
| ACAACCTAG | 1.08 |
| AGCGTTAACT | 1.01 |
| TTAGGGCCTT | 1.04 |
| TCGTTGGGTA | 1.02 |
| CTCATTCAAA | 1 |
| GTGCGGGTGG | 1.03 |
| TCTCACCAAG | 1.09 |
| GCGAAGTTAT | 0.987 |
| GATCGACAAT | 1.2 |
| TTACGAAGAG | 1.03 |
| TTGTTGGTAT | 0.993 |
